Laboratory results as given in PubChem BioAssay AID504339 (National Center for Advancing Translational Sciences (NCATS), 2011).
Among all 390,000 compounds or so, about 17,000 (4.4%) were called active. The shares of active, inactive and inconclusive entries below differ from those in the screen. The call rests on the fitted dose curve; in most records, active means well fitted inhibition curve with a large enough effect; inconclusive means small, poorly fitted or top-dose-only effect; inactive means no such curve, though single readings can be large or run the other way. Potencies of inconclusive entries are doubtful fits and often do not repeat.

The compounds below were run against Lysine-specific demethylase 4A (Homo sapiens) (UniProt O75164) (assay: qHTS Assay for Inhibitors of JMJD2A-Tudor Domain). Settings: AlphaScreen JMJD2A-Tudor / H3K4me3 peptide binding; activity change, negative = inhibition: at 114 µM (top of the series).
Sequence of UniProt O75164 (O75164 whole entry, looked up, the tested form may be a part): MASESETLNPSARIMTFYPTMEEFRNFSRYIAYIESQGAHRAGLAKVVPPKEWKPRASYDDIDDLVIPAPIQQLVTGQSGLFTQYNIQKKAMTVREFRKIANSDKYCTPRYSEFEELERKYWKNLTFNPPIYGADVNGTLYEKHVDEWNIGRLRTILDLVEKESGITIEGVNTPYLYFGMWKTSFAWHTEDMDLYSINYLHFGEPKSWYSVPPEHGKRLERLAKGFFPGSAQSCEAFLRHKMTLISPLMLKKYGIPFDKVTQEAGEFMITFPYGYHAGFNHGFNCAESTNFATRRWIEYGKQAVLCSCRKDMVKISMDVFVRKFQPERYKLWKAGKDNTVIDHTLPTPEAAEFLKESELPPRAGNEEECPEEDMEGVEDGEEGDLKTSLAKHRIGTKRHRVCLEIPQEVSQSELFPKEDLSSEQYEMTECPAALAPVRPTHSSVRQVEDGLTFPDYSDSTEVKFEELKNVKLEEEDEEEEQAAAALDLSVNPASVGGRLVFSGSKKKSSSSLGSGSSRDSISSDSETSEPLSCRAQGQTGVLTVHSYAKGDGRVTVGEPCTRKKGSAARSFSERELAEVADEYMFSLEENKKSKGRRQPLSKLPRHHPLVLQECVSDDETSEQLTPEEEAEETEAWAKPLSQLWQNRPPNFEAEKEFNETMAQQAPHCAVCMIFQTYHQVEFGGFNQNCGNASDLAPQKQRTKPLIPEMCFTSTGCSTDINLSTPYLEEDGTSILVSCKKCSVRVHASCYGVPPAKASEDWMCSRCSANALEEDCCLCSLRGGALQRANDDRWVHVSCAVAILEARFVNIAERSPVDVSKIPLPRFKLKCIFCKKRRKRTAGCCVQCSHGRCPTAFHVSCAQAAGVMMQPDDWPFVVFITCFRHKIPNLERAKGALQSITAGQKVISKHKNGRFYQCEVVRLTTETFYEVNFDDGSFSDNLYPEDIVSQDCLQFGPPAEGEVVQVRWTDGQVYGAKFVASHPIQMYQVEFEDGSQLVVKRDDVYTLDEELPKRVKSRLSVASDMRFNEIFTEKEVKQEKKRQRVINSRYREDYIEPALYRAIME
Further: nearly all actives have a fitted effect of over 50% in size.
On the % scale 0 is the no-effect control and ±100 the full control effect; potency means the concentration at half of the fitted maximal effect; tags describe the fitted curve by direction and shape.

Compound	Potency	activity change, negative = inhibition
O=C1C(NS(=O)(=O)c2cccs2)=C(N2CCOCC2)C(=O)c2ccccc21	inconclusive: 50.1 µM [inhibitor, partial curve]	–
O=C(COc1ccc(Br)cc1)N/N=C1/SCC(=O)N1Cc1ccco1	active: 15.8 µM	–
Cc1ccccc1C(=O)N/N=C1/SCC(=O)N1Cc1ccccc1	inactive	–
CCOc1nc(Nc2ccc(F)cc2)nc(N2CCN(c3ccc(OC)cc3)CC2)n1	inactive	–
CN(C)C(=O)CCN1CCOCC1	inconclusive: 56.2 µM [inhibitor, partial curve]	–
Cc1ccc(C)c(Nc2c([N+](=O)[O-])cc(C(=O)N3CC(=O)Nc4ccccc43)cc2[N+](=O)[O-])c1	inconclusive: 25.1 µM [inhibitor, partial curve]	–
CC(OC(=O)Cn1[nH]c(=O)c2ccccc2c1=O)C(=O)Nc1cccc(Cl)c1 (stereo not given)	inactive	–
Cc1ccc(C)n1-n1c(C)nc2sc(-c3ccccc3)cc2c1=O	inconclusive: 50.1 µM [inhibitor, partial curve]	–
Cc1cc(N2C(=O)C(O)=C(C(=O)c3ccco3)C2c2ccc(Cl)cc2)no1 (stereo not given)	inactive	–
COCCCn1c(SCC(=O)Nc2ccc(F)cc2)nc2c(sc3ccccc32)c1=O	inactive	–
COc1cccc(CNC(=O)COC(=O)c2cc(Br)c(Br)s2)c1	inactive	–
O=C(Cc1ccc(Cl)cc1Cl)OCC(=O)N1CCCCC1	inactive	–
Cc1ccc(NC(=S)N/N=C/c2cccn2Cc2ccccc2F)cc1	inconclusive: 20 µM [inhibitor, full curve]	–
CC(/C=C/c1ccccc1)=N\Nc1nc(-c2ccccc2)cs1	inconclusive: 50.1 µM [inhibitor, partial curve]	–
Cc1nn(-c2ccccc2)c2[nH]c(=O)c(CNc3ccc4c(c3)OCCO4)cc12	inconclusive: 50.1 µM [inhibitor, partial curve]	–
Clc1ccc(/C=N/c2c(-c3ccc(Cl)cc3)nc3n2CCS3)cc1	inconclusive: 7.94 µM [inhibitor, full curve, poor fit]	–
COc1ccc(S(=O)(=O)Nc2cc(OC)c(NC(=O)c3ccco3)cc2OC)cc1	inconclusive: 56.2 µM [inhibitor, partial curve]	–
C[C@@H]1CN([C@@H](C)CO)C(=O)c2cc(NC(=O)CCC(F)(F)F)ccc2O[C@H]1CN(C)Cc1ccc(Cl)c(Cl)c1	inconclusive: 56.2 µM [inhibitor, partial curve]	–
COc1ccc(CNc2oc(/C=C/c3cc(OC)c(OC)c(OC)c3)nc2C#N)cc1	inactive	–
Cc1cccc(NC(=O)CSc2nnc(-c3cnccn3)n2Cc2ccco2)c1	inactive	–
Cc1cccc(C(=O)N2CCc3cc(-c4csc(NC(=O)CN5CCCC5)n4)ccc32)c1	inconclusive: 20 µM [inhibitor, full curve]	–
O=C(CN1c2ccc(Br)cc2-c2ccccc2S1(=O)=O)N1CCCCC1	inactive	–
O=c1[nH]n2c(=O)c3c([nH]c2c1N=Nc1cccc(C(F)(F)F)c1)CCCC3	inconclusive: 39.8 µM [inhibitor, partial curve]	–
CCOC(=O)C1CCCN(C(=S)Nc2ccc(Nc3ccccc3)cc2)C1 (stereo not given)	active: 56.2 µM	–

Compound	Potency	activity change, negative = inhibition
Cc1ccc(NCc2ccccc2OCc2ccccc2F)cc1	inconclusive: 15.8 µM [inhibitor, full curve, poor fit]	–
CC(=O)Oc1ccc2nc(-c3ccco3)oc(=O)c2c1	active: 28.2 µM	–
CC(C)c1ccc2c(c1)c(SC(C)(C)C)c(CC(C)(C)C(=O)O)n2Cc1ccc(Cl)cc1	inconclusive: 56.2 µM [inhibitor, partial curve]	–
COc1ccc(Cl)cc1NC(=O)C(C)N1CCc2ccccc21 (stereo not given)	inconclusive: 10 µM [inhibitor, full curve, poor fit]	–
COc1cccc(N=Nc2c(C)[nH]n(-c3ccccc3)c2=O)c1	inconclusive: 3.16 µM [inhibitor, full curve]	–
Cc1csc(NC(=O)CSc2ncnc3c2cnn3-c2ccccc2Cl)n1	inconclusive: 56.2 µM [inhibitor, partial curve]	–
Clc1ccc(N2CCN(Cc3c[nH]c4ncccc34)CC2)cc1	inconclusive: 56.2 µM [inhibitor, partial curve]	–
Cc1cc(C)cc(-n2c(C)cc(/C=N/NC(=O)c3cccc([N+](=O)[O-])c3C)c2C)c1	inconclusive: 56.2 µM [inhibitor, partial curve]	–
CCOC(=O)c1cccc(NC(=O)c2cc3cc4cc(OC)ccc4nc3s2)c1	inconclusive: 6.31 µM [inhibitor, partial curve, poor fit]	–
Cc1ccc(CN(Cc2ccccc2)C(=S)NCC(=O)NCc2cccnc2)o1	inconclusive: 31.6 µM [inhibitor, single point]	–
CC1(C)Cc2c(cnn2-c2ccccc2)C(NC(=O)CCCn2cncn2)C1 (stereo not given)	inactive	–
O=C(OCC(=O)N1CCN(C(=O)c2ccco2)CC1)c1cccc(S(=O)(=O)N2CCc3ccccc32)c1	inconclusive: 63.1 µM [inhibitor, partial curve, poor fit]	–
OCCN1CCN(c2nc(NCc3ccco3)c3ccccc3n2)CC1	inconclusive: 79.4 µM [inhibitor, single point]	–
CCOc1cc2[nH]c(=S)n(CC3CCCN3CC)c(=O)c2cc1OCC (stereo not given)	inconclusive: 31.6 µM [inhibitor, full curve]	–
Cn1cc(CNCc2ccccc2OCC(O)CN2CCc3ccccc3C2)cn1 (stereo not given)	inconclusive: 39.8 µM [inhibitor, partial curve]	–
O=[N+]([O-])c1cccnc1NCCNc1ncc(C(F)(F)F)cc1Cl	inconclusive: 56.2 µM [inhibitor, partial curve]	–
Cc1ncc(CO)c2c1Oc1nc(-c3ccccc3)nc(SCC(=O)N3CCCCC3)c1C2	inconclusive: 63.1 µM [inhibitor, partial curve, poor fit]	–
CCN(CC)S(=O)(=O)c1ccc2c(c1)nc(-c1ccccn1)n2C	active: 31.6 µM	–
Cc1ccnc(NS(=O)(=O)c2ccc(N3C(=O)c4c(Cl)c(Cl)c(Cl)c(Cl)c4C3=O)cc2)n1	active: 89.1 µM	–
CCSC1=NC(C)(C)C=C(C)N1	inactive	–
Cn1c2ccccc2c(=O)c2c(=O)n(-c3ccc(F)cc3)c(-c3cccs3)nc21	inactive	–
COc1cc(CN2CCc3ccc(NC(=O)CCc4ccccc4OC)cc3C2)ccc1O	inconclusive: 50.1 µM [inhibitor, full curve, poor fit]	–
O=C(CN1CCOCC1)Nc1ccc2c(c1)CCC2	–	inactive: -11.8% [at 11.4 µM]
COc1cccc(N2CCN(C(=O)CCS(=O)(=O)c3ccc4c(c3)CC(=O)N4C)CC2)c1	inactive	–

Compound	Potency	activity change, negative = inhibition
O=C(COc1ccc([N+](=O)[O-])cc1)Nc1ccc2c(c1)nc1n2CCOC1	inconclusive: 17.8 µM [inhibitor, full curve, poor fit]	–
O=C(Cn1c(=O)n(CC(=O)NCc2ccccc2)c2ccccc21)NCc1ccccc1	inconclusive: 35.5 µM [inhibitor, partial curve]	–
O=c1oc2ccccc2n1CCCOc1ccccc1Cl	inactive	–
CCOc1ccc(NC(=O)c2ccc(NC(=O)c3ccccc3Br)cc2)cc1	inactive	–
COc1ccc(NC(C)C(=O)Nc2cccc(S(=O)(=O)N3CCOCC3)c2)cc1OC (stereo not given)	inactive	–
N#CC1=C(N)Oc2cc(O)ccc2C1c1ccc(Br)s1 (stereo not given)	inconclusive: 31.6 µM [inhibitor, full curve]	–
c1coc(-c2nnc3sc(Cc4cccs4)nn23)c1	active: 39.8 µM	–
CC(C)C[C@H](NC(=O)c1nc[nH]c1C(=O)N(C)Cc1ccccc1)C(=O)OC(C)(C)C	inconclusive: 39.8 µM [inhibitor, single point]	–
O=c1oc2ccc3ccccc3c2cc1-c1nnc(Nc2ccc(Cl)cc2Cl)s1	inactive	–
O=C1Cc2cc(S(=O)(=O)N3CCN(c4ccc([N+](=O)[O-])cc4)CC3)ccc2N1	inactive	–
COc1ccccc1C(=O)NCCSc1c(C)[nH]c2ccccc12	inconclusive: 35.5 µM [inhibitor, full curve]	–
Cc1cc(C)c(S(=O)(=O)N2CCN(C(=O)CN3C(=O)NC4(CCCC4)C3=O)CC2)c(C)c1	inactive	–
CCC(NC(=O)Nc1ccc(OC)c(OC)c1)c1c(-n2cccc2)sc2c1CCN(C)C2 (stereo not given)	inconclusive: 50.1 µM [inhibitor, partial curve]	–
S=c1[nH]nc(-c2ccco2)n1-c1ccc(Br)cc1	active: 25.1 µM	–
CC1=CC2=NC(=O)/C(=C\c3cccn3CCOc3cccc(C)c3)C(=N)N2O1	inconclusive: 28.2 µM [inhibitor, full curve]	–
Cc1c(C(=O)NCc2ccoc2)oc2ccc3c(c12)C(=O)CC(C)(C)O3	inconclusive: 56.2 µM [inhibitor, partial curve]	–
CSc1nc(C(=O)N2CCCC(Nc3ccc(C)c(C)c3)C2)cs1 (stereo not given)	inconclusive: 44.7 µM [inhibitor, partial curve]	–
Cc1nn(-c2ccccc2)c(OC(=O)c2ccccc2Cl)c1S(=O)(=O)c1ccccc1	inconclusive: 89.1 µM [inhibitor, single point]	–
COc1ccc(S(=O)(=O)Nc2noc3ccccc23)cc1	inactive	–
C=CCNc1nc(NCc2ccccc2)c(C#N)c2c1CN(C)CC2	inconclusive: 79.4 µM [inhibitor, single point]	–
Cc1cccc(CNC(=O)c2ccc(NC(=O)C3=CSCCO3)cc2)c1	active: 20 µM	–
O=C(CSc1nccn1Cc1ccccc1)Nc1nc2ccccc2s1	active: 50.1 µM	–
